Data on 115 sequences can be found in the BET-seq Pho4 binding data (Le et al. 2018).

Some of the results follow. These are noisy estimates, calculated here from bound and input reads.

This test deals with T1, Pho4 (S. cerevisiae) (UniProt P07270).
T1 sequence: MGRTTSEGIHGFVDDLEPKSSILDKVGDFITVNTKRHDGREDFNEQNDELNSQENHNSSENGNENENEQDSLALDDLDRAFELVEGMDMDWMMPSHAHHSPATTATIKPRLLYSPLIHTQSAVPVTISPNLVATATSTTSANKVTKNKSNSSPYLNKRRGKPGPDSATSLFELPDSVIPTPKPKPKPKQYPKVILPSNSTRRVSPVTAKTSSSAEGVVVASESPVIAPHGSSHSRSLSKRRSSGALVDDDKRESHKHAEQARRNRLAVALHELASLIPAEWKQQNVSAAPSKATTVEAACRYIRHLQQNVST
The test can be described thus: relative binding free energy (BET-seq); higher = weaker binding. As to conditions: reference: library average.
TATTACACGTGTTCTG: the “relative binding free energy” value worked out at 0.04 kcal/mol.

Regarding GAGGACACGTGGAAGG, the “relative binding free energy” value turned out to be 0.15 kcal/mol. Turning to TTCAGCACGTGGAGTA, the “relative binding free energy” value is -0.06 kcal/mol.

Turning to AGAGTCACGTGGTGGT, the “relative binding free energy” value was determined as 0.03 kcal/mol. The result for TTCGCCACGTGGTGGG reads -0.02 kcal/mol; that for TGGCACACGTGGATTG, 0.11 kcal/mol. As for AGGTGCACGTGTTATG, the “relative binding free energy” value came to 0.09 kcal/mol. TAGAACACGTGTGTGG: the “relative binding free energy” value is -0.06 kcal/mol.

AGGGGCACGTGTGGAT: the “relative binding free energy” value was 0.02 kcal/mol. The result for CCGGTCACGTGGTTGG reads 0.09 kcal/mol. On to ATGTTCACGTGTATAA, for which the “relative binding free energy” value was found to be 0.24 kcal/mol. AGAGGCACGTGTTATT: the “relative binding free energy” value was -0.09 kcal/mol. The result for AAATGCACGTGGGGGG reads -0.06 kcal/mol; that for TATCGCACGTGGTTAG, -0.05 kcal/mol; that for TTCGTCACGTGGGACG, 0 kcal/mol. For TGTACCACGTGAAGGA, the “relative binding free energy” value is 0.38 kcal/mol. For the sequence TAAGTCACGTGATGGA, the “relative binding free energy” value turned out to be 0.16 kcal/mol. Next, GGTTGCACGTGGGTTC: -0.03 kcal/mol. ACTGGCACGTGAATGG: the “relative binding free energy” value was found to be 0.06 kcal/mol. The result for GGGGACACGTGTCATG reads -0.06 kcal/mol; that for TTTGGCACGTGGAGCG, -0.14 kcal/mol. The result for TAGTGCACGTGACTAG reads 0.12 kcal/mol. Turning to TTTATCACGTGCTCTG, the “relative binding free energy” value was 0.14 kcal/mol. The result for TGCGGCACGTGCTTAG reads -0.13 kcal/mol; that for TGGTGCACGTGGCACG, -0.05 kcal/mol. AGTTGCACGTGCAGGT: the “relative binding free energy” value was -0.02 kcal/mol.

On to CCTGGCACGTGTGTGA, for which the “relative binding free energy” value is 0 kcal/mol.

Consider GTCATCACGTGGGATT, for which the “relative binding free energy” value was 0.1 kcal/mol. Next, AATGGCACGTGACGGG: 0 kcal/mol; AGGGGCACGTGATGTC: -0.08 kcal/mol.

With TGAGTCACGTGCGTGA, the “relative binding free energy” value was determined as 0.03 kcal/mol. The result for CGGCTCACGTGGAGGG reads 0.06 kcal/mol; that for ATGTACACGTGATGGT, 0.15 kcal/mol; that for TGGCCCACGTGGGTGT, -0.24 kcal/mol. The result for GTATTCACGTGAGTGA reads 0.45 kcal/mol; that for GCGGTCACGTGGTTGG, 0.2 kcal/mol; that for TAGATCACGTGCTTTT, 0.06 kcal/mol. On to CAGTGCACGTGTAGGA, for which the “relative binding free energy” value is -0.02 kcal/mol.

Consider TTAGACACGTGGAATG, for which the “relative binding free energy” value worked out at 0.01 kcal/mol. Next, TACTGCACGTGCGGGT: -0.06 kcal/mol. Next, GAAGACACGTGTGGTG: 0.24 kcal/mol; TTACACACGTGTTGGT: -0.03 kcal/mol; TAAAACACGTGTTAGT: -0.06 kcal/mol. Consider AGTGGCACGTGGGATA, for which the “relative binding free energy” value is -0.28 kcal/mol. The result for AGTTACACGTGGAGTA reads 0.04 kcal/mol; that for CTGGTCACGTGGTAGT, -0.03 kcal/mol.

GTTGTCACGTGTCGCG: the “relative binding free energy” value came to 0.05 kcal/mol.

Take ATGGTCACGTGCGTTC: the “relative binding free energy” value is 0.1 kcal/mol.

For the sequence AGATTCACGTGGGCAT, the “relative binding free energy” value was 0.31 kcal/mol. The result for AGGCACACGTGTGGGT reads 0.05 kcal/mol. Next, GGGGACACGTGAAAAG: 0.42 kcal/mol. The result for ATCGGCACGTGAGAGT reads 0.18 kcal/mol; that for CTGTTCACGTGGTTGT, 0.31 kcal/mol. As to ATGGACACGTGGGGAA, the “relative binding free energy” value is -0.12 kcal/mol. Consider ATGCTCACGTGGTGTA, for which the “relative binding free energy” value was 0.06 kcal/mol. For TACGTCACGTGTGTTC, the “relative binding free energy” value turned out to be 0.21 kcal/mol.

In the case of ATTATCACGTGGATGC, the “relative binding free energy” value turned out to be 0.07 kcal/mol. Consider TTAGTCACGTGATATA, for which the “relative binding free energy” value came to 0.25 kcal/mol. Turning to GTCTGCACGTGTGAGG, the “relative binding free energy” value stood at 0.01 kcal/mol. As for AGTGGCACGTGAAGGT, the “relative binding free energy” value stood at 0.14 kcal/mol.

With TTTCGCACGTGGTATG, the “relative binding free energy” value is -0.17 kcal/mol. In the case of ATGATCACGTGTGAGC, the “relative binding free energy” value worked out at 0.24 kcal/mol. As to GTTGTCACGTGTAGCT, the “relative binding free energy” value stood at 0.06 kcal/mol. Next, GAAATCACGTGGGGGC: 0.08 kcal/mol; ATGGGCACGTGGAGGC: -0.02 kcal/mol.

For the sequence TTGGACACGTGAGCAT, the “relative binding free energy” value turned out to be 0.38 kcal/mol. For GGATGCACGTGGGCAG, the “relative binding free energy” value was -0.11 kcal/mol. As for CTTGTCACGTGTATAG, the “relative binding free energy” value is 0.04 kcal/mol. Turning to GGGTGCACGTGGGGAC, the “relative binding free energy” value was -0.14 kcal/mol. Next, GGTTTCACGTGGTGGG: 0.33 kcal/mol. The result for TTGTGCACGTGAGCAA reads 0.23 kcal/mol; that for GGGCTCACGTGTGCTG, 0.16 kcal/mol; that for TAGCTCACGTGGGTAG, 0.03 kcal/mol. The result for TAAGTCACGTGGAGGA reads -0.04 kcal/mol. For GTAGACACGTGATAGG, the “relative binding free energy” value was -0.1 kcal/mol. The result for TTATCCACGTGGGTAG reads -0.27 kcal/mol; that for TATGGCACGTGTTTCG, -0.04 kcal/mol. TTCGTCACGTGGTATA: the “relative binding free energy” value was -0.08 kcal/mol. The result for GTATTCACGTGGTTAT reads 0.26 kcal/mol; that for GTGTGCACGTGAGGGA, 0.39 kcal/mol; that for GGTGGCACGTGTACAT, -0.02 kcal/mol.

On to TTTGGCACGTGCGTTG, for which the “relative binding free energy” value is -0.08 kcal/mol. In the case of TTTTGCACGTGAACGC, the “relative binding free energy” value amounted to 0.33 kcal/mol. GGTCGCACGTGTTGCT: the “relative binding free energy” value is 0.03 kcal/mol. The result for TTGCGCACGTGGAATT reads 0.02 kcal/mol; that for CTTGCCACGTGAGTGG, 0.16 kcal/mol. As to CGGGACACGTGCTGGG, the “relative binding free energy” value worked out at 0 kcal/mol. For ATGTACACGTGGCATG, the “relative binding free energy” value was -0.17 kcal/mol. On to GTCTGCACGTGGGAAG, for which the “relative binding free energy” value is -0.08 kcal/mol. The result for TGGCACACGTGGGATG reads -0.17 kcal/mol; that for AGTGGCACGTGCGGCT, -0.09 kcal/mol; that for GTTTGCACGTGAGGCC, 0.37 kcal/mol. Take TTATTCACGTGGGCTA: the “relative binding free energy” value was 0.06 kcal/mol. Regarding AATCTCACGTGTGGTG, the “relative binding free energy” value is 0.13 kcal/mol. Next, GGCTTCACGTGGATTG: 0.18 kcal/mol; AGCATCACGTGGGAGT: 0.04 kcal/mol. The result for TGAAGCACGTGGTCGC reads 0.02 kcal/mol. CGGAGCACGTGGGGAT: the “relative binding free energy” value is -0.06 kcal/mol. Next, GAGGTCACGTGAGGAG: 0.39 kcal/mol; CTGCTCACGTGGAGGT: 0.15 kcal/mol.

In the case of CGTTTCACGTGTTTCA, the “relative binding free energy” value came out at 0.3 kcal/mol. For TATCGCACGTGAGGCG, the “relative binding free energy” value is 0.16 kcal/mol.

For GGGAGCACGTGAGAGA, the “relative binding free energy” value came to 0.3 kcal/mol. The result for TCTGGCACGTGCGGGC reads -0.16 kcal/mol; that for GTTTACACGTGGTAAG, 0.14 kcal/mol. Next, GTTAACACGTGTGTCT: 0.14 kcal/mol; GTGTCCACGTGCGTAG: 0.07 kcal/mol; AGTCTCACGTGAGGGT: 0.33 kcal/mol.

Regarding ATGGGCACGTGGCCTA, the “relative binding free energy” value was -0.11 kcal/mol. Next, TTGGTCACGTGGGAAG: 0.05 kcal/mol; TGGTTCACGTGGGACT: 0.21 kcal/mol. Next, GTTTGCACGTGGTGCA: 0.13 kcal/mol; TAATGCACGTGCTGTG: -0.19 kcal/mol. Next, GCTTTCACGTGAGGTA: 0.38 kcal/mol; CTGGGCACGTGGCCGG: -0.28 kcal/mol.
